# Assay results reported in PubChem BioAssay AID1347055 (National Center for Advancing Translational Sciences (NCATS), 2019).
# Where “and” joins values, the source holds several entries; their conditions need not be identical. Identical values can stand only once. The campaign covered roughly 54,000 compounds. About 120 (0.22%) were called active. The shares of active, inactive and inconclusive entries below differ from those in the screen. Calls follow the shape of the dose curve; as a rule, active = well fitted inhibition curve with a large enough effect; inconclusive = small, poorly fitted or top-dose-only effect, or effect the other way; inactive = flat fitted curve, though single readings scatter. A potency beside an inconclusive call is a rough fit, not a confirmed value.
# Molecular target: Fumarate hydratase, mitochondrial (Homo sapiens) (UniProt P07954)
# Test: Identification of activators of human fumarate hydratase by quantitative high-throughput screening; also: the screen sought activators but most active calls are inhibition curves; nearly all actives have a fitted effect of over 45% in size
# Conditions: FH coupled MDH/diaphorase resazurin fluorescence, 15 min; activity change, negative = inhibition: at 79.9 µM (top of the series)
# % is scaled to controls: 0 for no effect and ±100 for the full control effect; potency is read from the fitted curve at half-maximal effect; tags tell the direction and shape of the fitted curve.
# Chain of UniProt P07954 (P07954 whole entry, looked up): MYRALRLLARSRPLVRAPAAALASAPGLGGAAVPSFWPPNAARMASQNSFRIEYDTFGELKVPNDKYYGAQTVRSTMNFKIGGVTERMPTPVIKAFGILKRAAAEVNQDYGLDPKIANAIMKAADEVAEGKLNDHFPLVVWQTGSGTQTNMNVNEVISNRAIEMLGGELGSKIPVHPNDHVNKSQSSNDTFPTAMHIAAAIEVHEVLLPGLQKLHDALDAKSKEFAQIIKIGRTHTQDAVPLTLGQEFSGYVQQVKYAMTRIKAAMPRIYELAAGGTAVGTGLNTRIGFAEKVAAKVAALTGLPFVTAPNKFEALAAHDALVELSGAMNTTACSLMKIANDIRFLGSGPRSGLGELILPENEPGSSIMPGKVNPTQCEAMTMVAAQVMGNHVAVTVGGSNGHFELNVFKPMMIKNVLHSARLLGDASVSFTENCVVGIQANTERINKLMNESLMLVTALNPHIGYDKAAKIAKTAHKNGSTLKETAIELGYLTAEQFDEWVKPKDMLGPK
Structure (SMILES),"activity change, negative = inhibition",Potency
Cc1ccc(NC(=O)CSc2nc3ccc(NC(=O)CCc4ccccc4)cc3s2)c(C)c1,inactive: 2.03%,
COC(=O)c1ccc(C2Nc3c(C)cc(C)cc3C3C=CCC32)cc1 (stereo not drawn),inactive: -2.37%,
Cc1ccc(C)c(-c2cc(C(F)(F)F)nn2-c2ccc(S(N)(=O)=O)cc2)c1,,"inconclusive: 22.4 µM [inhibitor, partial curve]"
COc1ccc(NC(=O)CSc2nc3nc(C)cc(C)n3n2)cc1,,"inconclusive: 35.5 µM [inhibitor, single point]"
CCOc1ccc(CNS(=O)(=O)c2ccc3[nH]c4c(c3c2)CCCC4)cc1OC,,"inconclusive: 31.6 µM [inhibitor, partial curve, poor fit]"
C=CC(=O)Nc1ccc(CN2C(=O)N(c3cc(OC)cc(OC)c3)Cc3cnc(Nc4ccc(N5CCN(C)CC5)cc4)nc32)cc1,,"inconclusive: 31.6 µM [inhibitor, single point]"
Cc1cc(C)c(S(=O)(=O)n2cc(C)cc2C)c(C)c1,inactive: 8.63%,
COc1ccc(CCn2cc3c(c2-c2ccccc2Br)c(=O)n(C)c(=O)n3C)cc1OC,inactive: -1.04%,
Cn1nc(C(=O)NCc2ccccc2)c2c1-c1ccccc1SC2,inactive: -28.1%,
C=C1CC[C@]2(C(=O)O[C@@H]3O[C@H](CO)[C@@H](O)[C@H](O)[C@H]3O)CC[C@]3(C)C(=CCC4[C@@]5(C)C[C@H](O)[C@@H](O[C@@H]6O[C@H](C(=O)O)[C@@H](O)[C@H](O)[C@H]6O)[C@](C)(C=O)C5CC[C@]43C)C2C1 (stereo partly drawn),inactive: 1.13% [at 20.6 µM],
CCCS(=O)(=O)c1ncc(Cl)c(C(=O)N(Cc2ccccc2)Cc2ccco2)n1,inactive: -18.8%,
O=C(Nc1ccc(S(=O)(=O)Nc2ccccc2)cc1)N1CCCC1,inactive: -6.49%,
CCOC(=O)c1ccc(NC(=O)CN(c2ccc(C)cc2)S(=O)(=O)c2c(C)noc2C)cc1,,"inconclusive: 35.5 µM [inhibitor, partial curve]"
Cc1sc2c(c1C)c(=O)n(CCc1ccccc1)c(=O)n2Cc1cccc(F)c1,,"inconclusive: 10 µM [inhibitor, partial curve, poor fit]"
CC(=O)C=C=C1C(C)(C)CC(O)CC1(C)O[C@@H]1O[C@H](CO[C@H]2OC[C@](O)(CO)[C@H]2O)[C@@H](O)[C@H](O)[C@H]1O (stereo partly drawn),inactive: -25.2% [at 53.3 µM],
COc1ccc(-c2cc3nc(C)c(CCC(=O)N4CCN(c5cccc(Cl)c5)CC4)c(C)n3n2)c(OC)c1,,"inconclusive: 28.2 µM [inhibitor, single point]"
Cc1cc(C)cc(Nc2cc(-c3ccccc3)nc(C)n2)c1,,"inconclusive: 22.4 µM [inhibitor, partial curve, poor fit]"
O=C(NC1CCCC1)c1c[nH]c2ccc(S(=O)(=O)Nc3cccc(C(F)(F)F)c3)cc2c1=O,,"inconclusive: 31.6 µM [inhibitor, partial curve, poor fit]"
CCOc1ccc(N(C)S(=O)(=O)c2ccc3c(c2)C(C)(C)C(=O)N3C)cc1,,"inconclusive: 50.1 µM [inhibitor, single point]"
Cn1c(=O)oc2cc(S(=O)(=O)CCC(=O)NCc3ccccc3)ccc21,,"inconclusive: 28.2 µM [inhibitor, single point]"
COc1ccc(Cl)cc1NC(=O)CCc1nc(-c2ccccc2F)no1,,"inconclusive: 31.6 µM [inhibitor, single point]"

Structure (SMILES),"activity change, negative = inhibition",Potency
Cn1cc(C2=C(c3c4n(c5ccccc35)CCC(CN)C4)C(=O)NC2=O)c2ccccc21 (stereo not drawn),inactive: -6.73% [at 53.3 µM],
CC1(C)CCC(C)(C)c2cc(C#Cc3ccc(C(=O)O)cc3)ccc21,,"inconclusive: 39.8 µM [inhibitor, single point]"
Cc1nnc(SCc2cc(=O)n3c(C)cccc3n2)s1,,"inconclusive: 44.7 µM [inhibitor, single point]"
O=C1CC(c2nc3ccccc3n2CCCCOc2ccccc2)CN1c1ccccc1Cl (stereo not drawn),,"inconclusive: 15.8 µM [inhibitor, partial curve, poor fit]"
O=C(/C=C/c1cccnc1)c1ccncc1,inactive: 3.81%,
Cc1nn(Cc2noc(C(=O)NCc3ccc(F)cc3)n2)c(C)c1Br,,"inconclusive: 31.6 µM [inhibitor, single point]"
COc1ccc(CC(=O)Nc2nc3c(s2)CC(C(C)(C)C)CC3)cc1 (stereo not drawn),,"inconclusive: 35.5 µM [inhibitor, single point]"
CCN(CC)S(=O)(=O)c1ccc(NC(=O)NCc2noc3ccc(C)cc23)cc1,,"inconclusive: 44.7 µM [inhibitor, partial curve, poor fit]"
O=C1NC(=O)/C(=C/c2ccc3c(c2)OC(F)(F)O3)S1,,"inconclusive: 31.6 µM [inhibitor, partial curve, poor fit] and inconclusive: 39.8 µM [inhibitor, partial curve]"
NCc1nc2cccnc2n1Cc1ccccc1Cl,,"inconclusive: 31.6 µM [activator, partial curve, poor fit]"
COCCNc1ncnc2c1c(-c1ccccc1)cn2-c1ccc(C)c(Cl)c1,,"inconclusive: 44.7 µM [inhibitor, single point]"
Cc1ccc(C2CCN(C(=O)c3cnn(-c4cccc(Cl)c4)c3C3CCN(C(=O)OC(C)(C)C)CC3)C2)cc1 (stereo not drawn),,"inconclusive: 31.6 µM [inhibitor, single point]"
COC1=CC(=O)C=C(C)C12Oc1c(Cl)c(OC)cc(OC)c1C2=O (stereo not drawn),inactive: -4.86% [at 53.3 µM],
COc1ccc(-c2c(-c3cc(C(=O)O)ccn3)ncn2C)cc1,,"inconclusive: 5.62 µM [activator, partial curve]"
CCOC(=O)c1ccc(N2C(=O)c3n[nH]c(C)c3C2c2cccc(Br)c2)cc1 (stereo not drawn),,"inconclusive: 31.6 µM [inhibitor, single point]"
O=C(COc1ccccc1)NCCc1csc(-c2ccc(Cl)cc2)n1,inactive: -25.9%,
Cc1cccc(N(CC(O)Cn2c3ccccc3c3ccccc32)S(=O)(=O)c2ccc(F)cc2)c1 (stereo not drawn),,"inconclusive: 12.6 µM [inhibitor, partial curve]"
Cc1cccc(C)c1OCC(=O)Nc1ncn[nH]1,,"inconclusive: 17.8 µM [activator, partial curve]"
CN(CCCNC(=O)c1cc2c(Cl)nc3ccccc3c2s1)Cc1ccccc1,inactive: 0.262%,
Cn1c(=O)n(-c2ccc(C(C)(C)C#N)cc2)c2c3cc(C#Cc4cccnc4)ccc3ncc21,inactive: 5.93% [at 53.3 µM],
Cc1cc(O)c2ccccc2c1O,,"inconclusive: 38.9 µM [inhibitor, single point]"

Structure (SMILES),"activity change, negative = inhibition",Potency
CN(C)CCOc1ccc(-c2nc(-c3ccc4c(c3)CC/C4=N/O)c(-c3ccncc3)[nH]2)cc1,inactive: 1.87%,
Fc1ccc(Nc2nc(SCc3ccc(Cl)cc3)nc3ccccc23)cc1,,"inconclusive: 10 µM [inhibitor, full curve]"
Cc1nc2nc(CNC(=O)c3cccc(F)c3)nn2c(C)c1CCC(=O)Nc1ccc(F)cc1,inactive: 2.74%,
CC(C)c1cnc2c(c1SCc1ccc([N+](=O)[O-])cc1)c(=O)n(C)c(=O)n2C,,"inconclusive: 39.8 µM [inhibitor, partial curve, poor fit]"
COc1ccc(OC)c(NC(=O)c2ccc3nc(C(C)C)oc3c2)c1,,"inconclusive: 4.47 µM [inhibitor, single point]"
Cc1nc(-c2cccnc2)sc1C(=O)Nc1ccccc1-c1cn2c(CN3CCOCC3)csc2n1,inactive: 3.4%,
CN(C)CCCN1c2ccccc2Sc2ccc(Cl)cc21,,"inconclusive: 35.5 µM [inhibitor, partial curve]"
Cc1cc(C)cc(OC(=O)c2cc(-c3ccc4c(c3)OCCO4)on2)c1,inactive: -7.45%,
COc1ccc(NC(=O)Nc2nnc(SCC(=O)Nc3cccc(C)c3C)s2)cc1,inactive: -11.1%,
C[C@@H]1O[C@@H](O[C@H]2[C@H](O)[C@@H](O)[C@H](OC3CCC4(C)C5CCC(C)(C(CO)OC6OC(CO)C(O)C(O)C6O)CC5=CCC4C3(C)C)O[C@@H]2CO)[C@H](O)[C@H](O)[C@H]1O (stereo partly drawn),,"inconclusive: 0.0056 µM [activator, full curve]"
Cc1nc(-c2ccc(OCC(C)C)c(C#N)c2)sc1C(=O)O,,"inconclusive: 30.9 µM [inhibitor, single point]"
CS(=O)(=O)N1CCc2cc(C(=O)Nc3ccc(Cl)c(C(F)(F)F)c3)ccc21,,"inconclusive: 28.2 µM [inhibitor, single point]"
O=C(NCc1ccccc1)[C@H](Cc1ccccc1)NC(=O)[C@@H]1O[C@@H]1C(=O)NCCc1ccc(O)cc1,inactive: 2.36% [at 53.3 µM],
CCOCCCNC(=O)c1cc2c(=O)n(C)c3ccccc3c2n1C,,"inconclusive: 17.8 µM [inhibitor, partial curve, poor fit]"
O=C(Cn1c(=O)oc2cc(S(=O)(=O)N3CCCC3)ccc21)NCc1ccc(Cl)cc1,inactive: 4.29%,
COc1ccc(CCNC(=O)c2ccc3c(c2)N=C(C)c2cc(C)ccc2S3)cc1OC,,"inconclusive: 31.6 µM [inhibitor, partial curve, poor fit]"
COc1ccccc1C(=O)NCCSc1c(C)[nH]c2ccccc12,,"inconclusive: 28.2 µM [inhibitor, partial curve]"
CCOC(=O)N1CCc2c(sc(NCc3cccs3)c2C(=O)Nc2cc(Cl)ccc2OC)C1,,"inconclusive: 44.7 µM [inhibitor, partial curve, poor fit]"
Oc1ccc(NCc2ccccc2OCc2ccccc2)cc1,,"inconclusive: 22.4 µM [inhibitor, partial curve]"
O=C1c2ccccc2-[n+]2ccc3c([nH]c4ccccc43)c21,,active: 6.85 µM
COc1ccc(C(=O)NCCc2csc(-c3ccc(Cl)cc3)n2)c(OC)c1,,active: 35.5 µM
